The target of experiment [1] is T1, Myc-tagged PAQR3 (UniProt Q6TCH7).
T1 sequence: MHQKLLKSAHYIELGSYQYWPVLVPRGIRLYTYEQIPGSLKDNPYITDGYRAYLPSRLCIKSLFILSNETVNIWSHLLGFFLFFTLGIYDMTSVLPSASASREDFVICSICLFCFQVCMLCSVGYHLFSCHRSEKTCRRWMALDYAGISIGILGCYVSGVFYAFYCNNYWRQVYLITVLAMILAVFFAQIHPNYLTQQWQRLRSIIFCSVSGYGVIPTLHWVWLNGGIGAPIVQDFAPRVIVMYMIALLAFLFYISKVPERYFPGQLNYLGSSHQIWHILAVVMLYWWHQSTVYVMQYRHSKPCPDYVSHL
Briefly: co-IP; HEK293T cells transiently co-transfected with both tagged partners; 24 hr after transfection the cell lysate was used in IP and IB with the antibodies as indicated.

Protein sequences, listed by entry. Tags and fused reporters are not part of them.
UniProt Q6ZNE5: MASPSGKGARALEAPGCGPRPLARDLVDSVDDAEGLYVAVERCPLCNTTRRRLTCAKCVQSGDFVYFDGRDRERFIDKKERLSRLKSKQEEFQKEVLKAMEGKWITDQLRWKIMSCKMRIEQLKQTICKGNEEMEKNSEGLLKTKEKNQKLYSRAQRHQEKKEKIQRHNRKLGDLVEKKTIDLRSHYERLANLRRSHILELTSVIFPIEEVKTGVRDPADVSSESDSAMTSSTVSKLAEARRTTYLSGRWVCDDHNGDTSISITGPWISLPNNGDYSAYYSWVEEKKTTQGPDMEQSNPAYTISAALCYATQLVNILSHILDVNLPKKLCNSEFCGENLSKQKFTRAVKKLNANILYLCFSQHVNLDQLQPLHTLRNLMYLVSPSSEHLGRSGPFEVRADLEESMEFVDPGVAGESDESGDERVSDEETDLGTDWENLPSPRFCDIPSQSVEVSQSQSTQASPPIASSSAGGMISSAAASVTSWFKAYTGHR
UniProt Q10471: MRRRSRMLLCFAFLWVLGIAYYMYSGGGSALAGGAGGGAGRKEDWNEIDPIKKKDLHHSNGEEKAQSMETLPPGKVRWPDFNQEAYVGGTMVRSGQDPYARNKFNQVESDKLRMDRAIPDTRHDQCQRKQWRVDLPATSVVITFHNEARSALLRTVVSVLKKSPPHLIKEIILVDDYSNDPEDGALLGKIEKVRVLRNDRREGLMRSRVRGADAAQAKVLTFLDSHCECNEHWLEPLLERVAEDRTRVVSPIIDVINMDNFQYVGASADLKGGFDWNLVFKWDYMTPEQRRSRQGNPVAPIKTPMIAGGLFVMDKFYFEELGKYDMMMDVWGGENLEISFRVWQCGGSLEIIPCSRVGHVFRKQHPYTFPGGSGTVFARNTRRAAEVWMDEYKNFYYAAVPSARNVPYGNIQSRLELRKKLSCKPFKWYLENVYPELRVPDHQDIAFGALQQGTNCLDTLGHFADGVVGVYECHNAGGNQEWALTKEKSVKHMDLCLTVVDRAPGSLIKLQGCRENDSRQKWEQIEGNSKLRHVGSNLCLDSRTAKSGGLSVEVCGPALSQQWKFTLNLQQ

Experiment [2] addresses T2, PAQR3 with deletion of N-terminal 1-70 amino acids (UniProt Q6TCH7).
T2 sequence: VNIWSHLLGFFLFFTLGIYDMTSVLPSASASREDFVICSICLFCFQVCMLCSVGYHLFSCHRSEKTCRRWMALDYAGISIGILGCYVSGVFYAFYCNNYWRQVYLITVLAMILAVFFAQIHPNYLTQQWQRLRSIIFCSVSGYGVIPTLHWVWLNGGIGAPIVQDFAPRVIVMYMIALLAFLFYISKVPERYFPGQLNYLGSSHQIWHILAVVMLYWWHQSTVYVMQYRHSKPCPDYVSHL
Described as above.

Experiment [3] concerns the target T1, Myc-tagged PAQR3. The experiment is described as above. This is another data set of the same source.
For experiment [4], the target named is T3, GST-fused N-terminal end of PAQR3 (1-71 aa) (UniProt Q6TCH7).
T3 sequence: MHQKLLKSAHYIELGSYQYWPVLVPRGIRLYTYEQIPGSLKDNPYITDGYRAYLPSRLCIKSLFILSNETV
Briefly: pull-down; GST pull-down with GST-fused PAQR3 (1-71 aa) or GST as bait (Figure S3); source of the preys not shown.

Where two headings read alike, the source gives them in different places. No constants are given. Whether binding was seen depends on the method and setting. Binding seen in cells or lysates may run through a third protein. Some entries that bind do so weakly or less than the wild type. Sequences can lack the tags named with a protein.

Turning to “GFP-fused ATG14L (from UniProt Q6ZNE5 1-492)”, the binding entry with Myc-tagged PAQR3 [1] is on record as “binds”. Same read-out and setting: to “GFP-fused GalNAc-T2 (from UniProt Q10471 1-571) (enzyme)” belongs “no binding”.

B1: FLAG-tagged Sec31A (protein, UniProt O94979 1-1220)
chain: MKLKEVDRTAMQAWSPAQNHPIYLATGTSAQQLDATFSTNASLEIFELDLSDPSLDMKSCATFSSSHRYHKLIWGPYKMDSKGDVSGVLIAGGENGNIILYDPSKIIAGDKEVVIAQNDKHTGPVRALDVNIFQTNLVASGANESEIYIWDLNNFATPMTPGAKTQPPEDISCIAWNRQVQHILASASPSGRATVWDLRKNEPIIKVSDHSNRMHCSGLAWHPDVATQMVLASEDDRLPVIQMWDLRFASSPLRVLENHARGILAIAWSMADPELLLSCGKDAKILCSNPNTGEVLYELPTNTQWCFDIQWCPRNPAVLSAASFDGRISVYSIMGGSTDGLRQKQVDKLSSSFGNLDPFGTGQPLPPLQIPQQTAQHSIVLPLKKPPKWIRRPVGASFSFGGKLVTFENVRMPSHQGAEQQQQQHHVFISQVVTEKEFLSRSDQLQQAVQSQGFINYCQKKIDASQTEFEKNVWSFLKVNFEDDSRGKYLELLGYRKEDLGKKIALALNKVDGANVALKDSDQVAQSDGEESPAAEEQLLGEHIKEEKEESEFLPSSGGTFNISVSGDIDGLITQALLTGNFESAVDLCLHDNRMADAIILAIAGGQELLARTQKKYFAKSQSKITRLITAVVMKNWKEIVESCDLKNWREALAAVLTYAKPDEFSALCDLLGTRLENEGDSLLQTQACLCYICAGNVEKLVACWTKAQDGSHPLSLQDLIEKVVILRKAVQLTQAMDTSTVGVLLAAKMSQYANLLAAQGSIAAALAFLPDNTNQPNIMQLRDRLCRAQGEPVAGHESPKIPYEKQQLPKGRPGPVAGHHQMPRVQTQQYYPHGENPPPPGFIMHGNVNPNAAGQLPTSPGHMHTQVPPYPQPQPYQPAQPYPFGTGGSAMYRPQQPVAPPTSNAYPNTPYISSASSYTGQSQLYAAQHQASSPTSSPATSFPPPPSSGASFQHGGPGAPPSSSAYALPPGTTGTLPAASELPASQRTGPQNGWNDPPALNRVPKKKKMPENFMPPVPITSPIMNPLGDPQSQMLQQQPSAPVPLSSQSSFPQPHLPGGQPFHGVQQPLGQTGMPPSFSKPNIEGAPGAPIGNTFQHVQSLPTKKITKKPIPDEHLILKTTFEDLIQRCLSSATDPQTKRKLDDASKRLEFLYDKLREQTLSPTITSGLHNIARSIETRNYSEGLTMHTHIVSTSNFSETSAFMPVLKVVLTQANKLGV
Consider B1, for which the binding entry in experiment [2] was “no binding”; with Myc-tagged PAQR3 [3], “binds”.

B2: Sec31A (prey of the GST pull-down) (protein, UniProt O94979 1-1220)
chain: MKLKEVDRTAMQAWSPAQNHPIYLATGTSAQQLDATFSTNASLEIFELDLSDPSLDMKSCATFSSSHRYHKLIWGPYKMDSKGDVSGVLIAGGENGNIILYDPSKIIAGDKEVVIAQNDKHTGPVRALDVNIFQTNLVASGANESEIYIWDLNNFATPMTPGAKTQPPEDISCIAWNRQVQHILASASPSGRATVWDLRKNEPIIKVSDHSNRMHCSGLAWHPDVATQMVLASEDDRLPVIQMWDLRFASSPLRVLENHARGILAIAWSMADPELLLSCGKDAKILCSNPNTGEVLYELPTNTQWCFDIQWCPRNPAVLSAASFDGRISVYSIMGGSTDGLRQKQVDKLSSSFGNLDPFGTGQPLPPLQIPQQTAQHSIVLPLKKPPKWIRRPVGASFSFGGKLVTFENVRMPSHQGAEQQQQQHHVFISQVVTEKEFLSRSDQLQQAVQSQGFINYCQKKIDASQTEFEKNVWSFLKVNFEDDSRGKYLELLGYRKEDLGKKIALALNKVDGANVALKDSDQVAQSDGEESPAAEEQLLGEHIKEEKEESEFLPSSGGTFNISVSGDIDGLITQALLTGNFESAVDLCLHDNRMADAIILAIAGGQELLARTQKKYFAKSQSKITRLITAVVMKNWKEIVESCDLKNWREALAAVLTYAKPDEFSALCDLLGTRLENEGDSLLQTQACLCYICAGNVEKLVACWTKAQDGSHPLSLQDLIEKVVILRKAVQLTQAMDTSTVGVLLAAKMSQYANLLAAQGSIAAALAFLPDNTNQPNIMQLRDRLCRAQGEPVAGHESPKIPYEKQQLPKGRPGPVAGHHQMPRVQTQQYYPHGENPPPPGFIMHGNVNPNAAGQLPTSPGHMHTQVPPYPQPQPYQPAQPYPFGTGGSAMYRPQQPVAPPTSNAYPNTPYISSASSYTGQSQLYAAQHQASSPTSSPATSFPPPPSSGASFQHGGPGAPPSSSAYALPPGTTGTLPAASELPASQRTGPQNGWNDPPALNRVPKKKKMPENFMPPVPITSPIMNPLGDPQSQMLQQQPSAPVPLSSQSSFPQPHLPGGQPFHGVQQPLGQTGMPPSFSKPNIEGAPGAPIGNTFQHVQSLPTKKITKKPIPDEHLILKTTFEDLIQRCLSSATDPQTKRKLDDASKRLEFLYDKLREQTLSPTITSGLHNIARSIETRNYSEGLTMHTHIVSTSNFSETSAFMPVLKVVLTQANKLGV
As for B2, in experiment [4], the binding result is “binds”.

B3: Sec31A intervening region (431-799 amino acids) (domain or fragment, UniProt O94979 431-799)
chain: QVVTEKEFLSRSDQLQQAVQSQGFINYCQKKIDASQTEFEKNVWSFLKVNFEDDSRGKYLELLGYRKEDLGKKIALALNKVDGANVALKDSDQVAQSDGEESPAAEEQLLGEHIKEEKEESEFLPSSGGTFNISVSGDIDGLITQALLTGNFESAVDLCLHDNRMADAIILAIAGGQELLARTQKKYFAKSQSKITRLITAVVMKNWKEIVESCDLKNWREALAAVLTYAKPDEFSALCDLLGTRLENEGDSLLQTQACLCYICAGNVEKLVACWTKAQDGSHPLSLQDLIEKVVILRKAVQLTQAMDTSTVGVLLAAKMSQYANLLAAQGSIAAALAFLPDNTNQPNIMQLRDRLCRAQGEPVAGHES
On to B3, for which the binding entry in the experiment with Myc-tagged PAQR3 [3] is given as “no binding”.

B4: Sec13 N-terminal WD40 repeat domain (1-302 amino acids) (domain or fragment, UniProt P55735 1-302)
chain: MVSVINTVDTSHEDMIHDAQMDYYGTRLATCSSDRSVKIFDVRNGGQILIADLRGHEGPVWQVAWAHPMYGNILASCSYDRKVIIWREENGTWEKSHEHAGHDSSVNSVCWAPHDYGLILACGSSDGAISLLTYTGEGQWEVKKINNAHTIGCNAVSWAPAVVPGSLIDHPSGQKPNYIKRFASGGCDNLIKLWKEEEDGQWKEEQKLEAHSDWVRDVAWAPSIGLPTSTIASCSQDGRVFIWTCDDASSNTWSPKLLHKFNDVVWHVSWSITANILAVSGGDNKVTLWKESVDGQWVCISD
With B4, in the experiment with Myc-tagged PAQR3 [3], the binding result is recorded as “binds”.

B5: Sec13 C-terminal region (301-322 amino acids) (domain or fragment, UniProt P55735 301-322)
chain: SDVNKGQGSVSASVTEGQQNEQ
B5: the binding entry in the experiment with Myc-tagged PAQR3 [3] is “no binding”.

B6: Sec31A N-terminal WD40 repeat domain (1-430 amino acids) (domain or fragment, UniProt O94979 1-430)
chain: MKLKEVDRTAMQAWSPAQNHPIYLATGTSAQQLDATFSTNASLEIFELDLSDPSLDMKSCATFSSSHRYHKLIWGPYKMDSKGDVSGVLIAGGENGNIILYDPSKIIAGDKEVVIAQNDKHTGPVRALDVNIFQTNLVASGANESEIYIWDLNNFATPMTPGAKTQPPEDISCIAWNRQVQHILASASPSGRATVWDLRKNEPIIKVSDHSNRMHCSGLAWHPDVATQMVLASEDDRLPVIQMWDLRFASSPLRVLENHARGILAIAWSMADPELLLSCGKDAKILCSNPNTGEVLYELPTNTQWCFDIQWCPRNPAVLSAASFDGRISVYSIMGGSTDGLRQKQVDKLSSSFGNLDPFGTGQPLPPLQIPQQTAQHSIVLPLKKPPKWIRRPVGASFSFGGKLVTFENVRMPSHQGAEQQQQQHHVFIS
With B6, the binding entry with Myc-tagged PAQR3 [3] is on record as “binds”.

B7: Sec31A C-terminal proline-rich region (800-1220 amino acids) (domain or fragment, UniProt O94979 800-1220)
chain: PKIPYEKQQLPKGRPGPVAGHHQMPRVQTQQYYPHGENPPPPGFIMHGNVNPNAAGQLPTSPGHMHTQVPPYPQPQPYQPAQPYPFGTGGSAMYRPQQPVAPPTSNAYPNTPYISSASSYTGQSQLYAAQHQASSPTSSPATSFPPPPSSGASFQHGGPGAPPSSSAYALPPGTTGTLPAASELPASQRTGPQNGWNDPPALNRVPKKKKMPENFMPPVPITSPIMNPLGDPQSQMLQQQPSAPVPLSSQSSFPQPHLPGGQPFHGVQQPLGQTGMPPSFSKPNIEGAPGAPIGNTFQHVQSLPTKKITKKPIPDEHLILKTTFEDLIQRCLSSATDPQTKRKLDDASKRLEFLYDKLREQTLSPTITSGLHNIARSIETRNYSEGLTMHTHIVSTSNFSETSAFMPVLKVVLTQANKLGV
Regarding B7, the binding result with Myc-tagged PAQR3 [3] was “no binding”.

The values above are taken from article PMC6249397.
